The campaign covered roughly 50,000 compounds. About 800 (1.6%) showed an effect of 50% or more. Some of the results follow.

The target of the experiment is Bcl-2-like protein 10 (Homo sapiens) (UniProt Q9HD36). Briefly: TR3 peptide-Bcl-B binding displacers, biochemical primary FP assay, phenotype converters (AID 1240).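 Further: 0% = Bcl-B with tracer peptide and DMSO and 100% = tracer peptide lacking Bcl-B.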 Conditions: GST-Bcl-B / FITC-TR3 peptide fluorescence polarization; stronger effect = higher value; compound at 3.75 mg/L.
UniProt Q9HD36, sequence (Q9HD36 whole entry, looked up): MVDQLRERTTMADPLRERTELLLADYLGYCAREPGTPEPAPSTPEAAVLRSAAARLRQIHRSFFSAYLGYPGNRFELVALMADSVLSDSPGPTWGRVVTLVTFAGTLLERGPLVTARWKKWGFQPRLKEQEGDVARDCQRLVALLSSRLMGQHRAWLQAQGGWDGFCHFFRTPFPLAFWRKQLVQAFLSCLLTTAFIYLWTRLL
For the compound `Cc1nc2ccccc2n1S(=O)(=O)c1cccc(Cl)c1Cl`, the displacement worked out at 9.1%.
Consider `COC(=O)c1cc(-c2ccc(C)cc2)nc2ccccc12`, for which the displacement was 2.1%.
For the compound `O=C1NN(c2ccc(Cl)c(Cl)c2)C(=O)/C1=C/c1cccc([N+](=O)[O-])c1`, the displacement turned out to be 16.5%.
Under `O=C(/C=C/c1ccc(-c2ccccc2Cl)o1)c1ccc2ccccc2c1` stands 8.3%.
Under `O=S(=O)(Nc1ccc2c(c1)OCCO2)c1ccc2ccccc2c1` stands 2.1%.
With `COc1ccc(Cl)cc1C(=O)Nc1ccccc1[N+](=O)[O-]`, the displacement was -0.8%.
The value for `O=C1C(NC2CCCCC2)=C(N2CCCCC2)C(=O)c2ccccc21` was 7.4%.
Under `Cc1c(OCC(N)=O)ccc2c1oc(=O)c1ccccc12` stands 6.9%; under `COc1cc(/C=C2/C(=O)NC(=O)N(c3ccccc3F)C2=O)ccc1OCc1ccc(C(=O)O)cc1`, 12.1%.
Take `COc1ccc(Cc2nc3ccccc3c(=O)n2/N=C/c2cccs2)cc1OC`: the displacement was -4.6%.
For the compound `Cc1ccc(-c2cc(C(=O)N/N=C/c3ccccc3)[nH]n2)cc1`, the displacement is -27.2%.
The value for `Cc1nc(-c2ccccc2)sc1C(=O)Nc1ccc(-c2cn3ccccc3n2)cc1` was 10.6%.
Under `COc1ccc(OCCNc2cc(N3CCOCC3)ccc2[N+](=O)[O-])cc1` stands 14.5%; under `CCOc1cccc(-c2cc(C(=O)Nc3ccc4c(c3)OCO4)c3ccccc3n2)c1`, 0%; under `COc1ccc(CC(=O)Nc2cc([N+](=O)[O-])ccc2C)cc1OC`, 3.3%.
Under `Nc1ccc(-c2ccc(N3C(=O)c4cccc5c(Cl)ccc(c45)C3=O)cc2)cc1` stands -1.3%.
As to `O=C(O)C(Cc1ccccc1)N1C(=O)/C(=C/c2ccc(Cl)cc2Cl)SC1=S` (stereo unspecified), the displacement was -6.3%.
In the case of `O=C1NC(=S)NC(=O)C1=Cc1ccc(O)c(Cl)c1`, the displacement was -4.2%.
With `O=C1NC(=Nc2cccc(O)c2)S/C1=C\C=C\c1ccccc1`, the displacement was -2.1%.
Under `CCn1c2ccccc2c2nnc(SCC(=O)NC(C)c3ccccc3)nc21` (stereo unspecified) stands 12.8%; under `CCOC(=O)c1c(NC(=O)c2ccc(Cl)c(Cl)c2)sc(C(=O)Nc2ccccc2F)c1C`, -11.4%; under `Cc1cccc(N2C(=O)c3ccc(Oc4ccc([N+](=O)[O-])cc4)cc3C2=O)c1C`, 12.3%.
Under `COc1ccc(NC(=O)COc2ccccc2C(C)C)c(OC)c1` stands -2%; under `Cc1ccc(C(CC(=O)C(C)C)C2C(=O)c3ccccc3C2=O)cc1` (stereo unspecified), -8.6%; under `CCOc1ccc(-c2nc3sc4c(c3c(=O)[nH]2)CCCC4)c2ccccc12`, -6.1%.
The value for `CCOC(=O)c1c(C)oc2ccc(OC(=O)c3cccc([N+](=O)[O-])c3)cc12` was 7.5%.
As for `Cc1ccc(-c2cc(C(=O)O)c3ccccc3n2)c(C)c1`, the displacement is -2.8%.
The value for `Cc1ccc(C)c2c(N=NC(=O)/C(=C\c3ccccc3)NC(=O)c3ccccc3)c(O)[nH]c12` was 8.8%.
Consider `Cc1nc2sc(C#N)c(N)c2c(C)c1CC(=O)c1ccccc1`, for which the displacement is -11.3%.
The value for `O=c1nc2s/c(=C/c3ccc(Cl)c(Cl)c3)c(=O)n2nc1Cc1ccccc1` was 11.7%; that for `Cc1cc(C23CC4CC(C2)CC(c2cc(C)c(S(N)(=O)=O)c(C)c2)(C4)C3)cc(C)c1S(N)(=O)=O` was 3%.
The value for `COC(=O)c1ccc(C(=O)OC)c(NC(=O)COc2ccc(C)cc2C(C)(C)C)c1` was 17.1%.
The value for `CC(C)(C)C(=O)NCC12C=CC(O1)C1C(=O)N(c3ccccc3)C(=O)C12` (stereo unspecified) was -0.1%; that for `Cc1ccc2[nH]c3nc(N/N=C/c4cccs4)nnc3c2c1` was 6%.
Take `Cc1cccc(N2C(=O)NC(=O)/C(=C\c3cc(Br)c(O)c([N+](=O)[O-])c3)C2=O)c1`: the displacement turned out to be 9.1%.
The value for `CN(C(=O)COc1ccc(Cl)cc1Cl)C1CCS(=O)(=O)C1` (stereo unspecified) was 10.4%.
The value for `Cc1cc(-c2ccc(C=C3C(=O)N(C)C(=O)N(C)C3=O)o2)c([N+](=O)[O-])cc1C` was 12.9%; that for `Cn1c(-c2ccc(Cl)cc2Cl)n[nH]c1=S` was -26.2%.
The value for `CCOC(=O)c1ccc(NC(=O)/C(=C/c2ccccc2)c2ccccc2)cc1` was -30.1%.
Consider `CC(=O)N/N=C/c1ccc2c(c1)OCO2`, for which the displacement stood at 20.9%.
The value for `COCCNC(=S)Nc1ccc(F)cc1` was 6.5%; that for `Cc1nn(CC(=O)Nc2ccccc2C(F)(F)F)c(C)c1[N+](=O)[O-]` was -5.4%.
The value for `CC12C=CC(C)(O1)C1C(=O)N(c3ccc(F)cc3)C(=O)C12` (stereo unspecified) was -0.5%.
The value for `COC(=O)c1ccc(-n2c(C)cc(/C=C3\SC(=S)NC3=O)c2C)cc1` was 28.3%; that for `O=C(O)c1ccccc1C(=O)c1ccc(F)c(F)c1` was -2.8%.
As for `COc1cc(-c2nnc3ccc4ccccc4n23)ccc1OCc1ccccc1`, the displacement was -3.3%.
The value for `Cc1ccc(OCCSc2ncnc3nc[nH]c23)cc1` was 4.7%; that for `Cc1ccc(N(CC(=O)Nc2cccc(Br)c2)S(C)(=O)=O)cc1Cl` was -4.3%; that for `CCCCOC(=O)Cn1c(=N)n(CCC)c2ccccc21` was -2%.
Under `COc1cc(NC(=O)Cn2nc([N+](=O)[O-])c(Cl)c2C)cc([N+](=O)[O-])c1` stands -4.1%; under `CCC(=O)Oc1ccc2ccc(=O)oc2c1`, 4.6%; under `CC(C)(C)c1ccc(OCC(=O)Nc2ccc3oc(-c4cccnc4)nc3c2)cc1`, -8.5%.
Under `CCCS(=O)(=O)c1c(S(=O)(=O)CCC)c2c(N)cccn2c1C(=O)c1ccc(OC)cc1` stands 17.1%; under `O=c1[nH]c(=S)n(-c2ccc(Cl)c(Cl)c2)c(O)c1/C=C1\C=CC=N1`, 6.4%; under `COc1cc(C2Nc3cc(C)c(C)cc3NC3=C2C(=O)CC(C)(C)C3)cc(Br)c1OC` (stereo unspecified), -0.9%.
As to `Cc1ccc(C(=O)N2CCN(C(=O)c3ccc(C)cc3)CC2)cc1`, the displacement was -11.6%.
Under `COC(=O)c1cnn2c(C(F)(F)F)cc(-c3ccccc3)nc12` stands 2.1%; under `CCOC(=O)c1ccccc1NC(=O)CN(c1ccc(OC)cc1)S(C)(=O)=O`, -3.1%; under `CN(C)c1cccc(NC(=O)CCc2ccccc2)c1`, 11.9%.
Under `COC(=O)C1=C(C)N(C)C(C)=C(C(=O)OC)C1c1ccc(Br)cc1` stands -10.8%; under `CCN(CC)CCN1C(=O)C(O)=C(C(=O)/C=C/c2ccccc2)C1c1ccc(C)cc1` (stereo unspecified), -8.5%.
For the compound `COC(=O)c1ccc(-c2ccc(/C=N\Nc3ccc([N+](=O)[O-])cn3)o2)cc1`, the displacement is 9%.
Under `C=CCOc1ccc(/C=C2\C(=O)NC(=S)N(c3ccc(Br)cc3)C2=O)cc1OC` stands -7.7%; under `Cc1cc(C)cc(NC(=O)COc2cccc(C)c2)c1`, 10.4%.
Take `CCN(CC)CCn1c2ccccc2n2cc(C(C)(C)C)nc12`: the displacement is -8.7%.
The value for `COc1ccc(-c2csc(/C(C#N)=C\c3cc(OC)ccc3OC)n2)cc1` was -5.9%.
